Measurements: patent publication US20260085122A1
Changes are numbered by the printed parent chain. One block for each binder: values may come before it.

How the values were obtained:
[1] = target: human B7H3 (ECD)-His (SinoBiological, 11188-H08H) (human) (UniProt Q5ZPR3); test: SPR, human B7H3 (ECD)-His
[2] = target: human B7H3 (ECD)-His (SinoBiological, 11188-H08H) (human) (UniProt Q5ZPR3); test: SPR (antigen not named in this example)
[3] = target: native B7H3 on cells (UniProt Q5ZPR3); test: flow cytometry on HEK293 cells, anti-human IgG Fc secondary
[4] = target: native B7H3 on cells (UniProt Q5ZPR3); test: flow cytometry on H358 cells, goat anti-human IgG secondary
[5] = target: human B7H3 (ECD)-His (SinoBiological, 11188-H08H) (human) (UniProt Q5ZPR3); test: SPR (antigen printed only as human B7H3)
[6] = target: human B7H3 (ECD)-His (SinoBiological, 11188-H08H) (human) (UniProt Q5ZPR3); test: SPR, human B7H3 (ECD)-His; remark: listed apart in the source

B1: BGA-056 (Fc fusion)
chain: EVQLLESGGGLVQPGGSLRLSCAASGFTFSDYHMSWVRQAPGKGLEWVSGILNTGLSPTYAATVTGRFTISRDNAKNTLYLSMNSLKPEDTAVYYCAQGYYRATPSQANRGQGTQVTVSS[human IgG1 Fc with C220S (EU numbers) left out]
Kd [1]: 0.614 nM | koff [1]: 0.000107 s⁻¹ | kon [1]: 175000 M⁻¹ s⁻¹ | KD ratio to BGA-056 chimeric [2]: 1 | Kd [2]: 0.1 nM | koff [2]: 0.000103 s⁻¹ | EC50 [3]: 0.0219 µg/mL | EC50 [4]: 0.452 µg/mL

B2: BGA-1741 (Fc fusion)
chain: B1 chain with A75S, S82Q, K87R, P88A, Q98K, Q115L
KD ratio to BGA-056 chimeric [2]: 2.06 | Kd [2]: 0.206 nM | koff [2]: 0.000171 s⁻¹ | kon [2]: 828000 M⁻¹ s⁻¹

B3: BGA-174 (Fc fusion)
chain: B1 chain with A75S, S82Q, K87R, P88A, Q115L
KD ratio to BGA-056 chimeric [2]: 1.1 | Kd [2]: 0.11 nM | koff [2]: 0.000106 s⁻¹ | kon [2]: 963000 M⁻¹ s⁻¹ | EC50 [4]: 0.289 µg/mL

B9: BGA-026 (Fc fusion)
chain: EVQLVESGGGLVQTGDSLRLSCAASPRTFQTYFMGWFRQAPGKEREFVSVINWSGGTSYYKDSVKGRFTISRDNAKNTVYLQMNNLKPEDTAVYYCAAKGSGTYDREGEYDYWGQGTQVTVSS[human IgG1 Fc with C220S (EU numbers) left out]
Kd [1]: 1.13 nM | koff [1]: 0.000278 s⁻¹ | kon [1]: 247000 M⁻¹ s⁻¹ | KD ratio to BGA-026 chimeric [6]: 1 | Kd [6]: 0.262 nM | koff [6]: 0.000255 s⁻¹ | kon [6]: 974000 M⁻¹ s⁻¹ | KD ratio to BGA-026 chimeric [5]: 1 | Kd [5]: 0.486 nM | koff [5]: 0.000342 s⁻¹ | EC50 [4]: 0.263 µg/mL

B10: BGA-1543 (Fc fusion)
chain: B9 chain with T14P, D16G, Q30S, A75S, N85S, K87R, P88A, Q118L
KD ratio to BGA-026 chimeric [6]: 1.91 | Kd [6]: 0.501 nM | koff [6]: 0.000616 s⁻¹ | kon [6]: 1.23e+06 M⁻¹ s⁻¹

B12: BGA-1542 (Fc fusion)
chain: B9 chain with T14P, D16G, R27F, A75S, N85S, K87R, P88A, Q118L
KD ratio to BGA-026 chimeric [6]: 1.66 | Kd [6]: 0.434 nM | koff [6]: 0.000539 s⁻¹ | kon [6]: 1.24e+06 M⁻¹ s⁻¹

B13: BGA-1545 (Fc fusion)
chain: B9 chain with T14P, D16G, E44G, A75S, N85S, K87R, P88A, Q118L
KD ratio to BGA-026 chimeric [6]: 1 | Kd [6]: 0.263 nM | koff [6]: 0.000236 s⁻¹ | kon [6]: 898000 M⁻¹ s⁻¹

B14: BGA-1548 (Fc fusion)
chain: B9 chain with T14P, D16G, A75S, V79L, N85S, K87R, P88A, Q118L
KD ratio to BGA-026 chimeric [6]: 0.87 | Kd [6]: 0.227 nM | koff [6]: 0.000205 s⁻¹ | kon [6]: 901000 M⁻¹ s⁻¹

B16: BGA-154 (Fc fusion)
chain: B9 chain with T14P, D16G, A75S, N85S, K87R, P88A, Q118L
KD ratio to BGA-026 chimeric [6]: 0.9 | Kd [6]: 0.236 nM | koff [6]: 0.000201 s⁻¹ | kon [6]: 853000 M⁻¹ s⁻¹

B17: BGA-1547 (Fc fusion)
chain: B9 chain with T14P, D16G, F47W, A75S, N85S, K87R, P88A, Q118L
KD ratio to BGA-026 chimeric [6]: 1.01 | Kd [6]: 0.265 nM | koff [6]: 0.000438 s⁻¹ | kon [6]: 1.65e+06 M⁻¹ s⁻¹

B18: BGA-1546 (Fc fusion)
chain: B9 chain with T14P, D16G, R45L, A75S, N85S, K87R, P88A, Q118L
KD ratio to BGA-026 chimeric [6]: 1.13 | Kd [6]: 0.295 nM | koff [6]: 0.000273 s⁻¹ | kon [6]: 924000 M⁻¹ s⁻¹

Second part, the binder after the results:

KD ratio to BGA-056 chimeric [2]: 4.76 | Kd [2]: 0.476 nM | koff [2]: 0.0004 s⁻¹ | kon [2]: 840000 M⁻¹ s⁻¹
B4: BGA-1742 (Fc fusion)
chain: B1 chain with A75S, S82Q, K87R, P88A, R110W, Q115L

KD ratio to BGA-026 chimeric [5]: 1.94 | Kd [5]: 0.944 nM | koff [5]: 0.000388 s⁻¹ | kon [5]: 411000 M⁻¹ s⁻¹
B5: BGA-2041 (Fc fusion)
chain: EVQLVESGGGLVQPGGSLRLSCAASPRTFQTYFMGWFRQAPGKGLEWVSVINWSGGTSYYKDSVKGRFTISRDNSKNTLYLQMNSLRAEDTAVYYCAAKGSGTYDREGEYDYWGQGTLVTVSS[human IgG1 Fc with C220S (EU numbers) left out]

KD ratio to BGA-026 chimeric [5]: 19 | Kd [5]: 9.25 nM | koff [5]: 0.00496 s⁻¹ | kon [5]: 537000 M⁻¹ s⁻¹
B6: BGA-2044 (Fc fusion)
chain: B5 chain with Q30S, G44E

KD ratio to BGA-026 chimeric [5]: 5.21 | Kd [5]: 2.53 nM | koff [5]: 0.00105 s⁻¹ | kon [5]: 415000 M⁻¹ s⁻¹
B7: BGA-2043 (Fc fusion)
chain: B5 chain with R27F, G44E

KD ratio to BGA-026 chimeric [5]: 46.3 | Kd [5]: 22.5 nM | koff [5]: 0.0146 s⁻¹ | kon [5]: 646000 M⁻¹ s⁻¹
B8: BGA-2045 (Fc fusion)
chain: B5 chain with R27F, Q30S, G44E

KD ratio to BGA-026 chimeric [5]: 1.7 | Kd [5]: 0.825 nM | koff [5]: 0.00037 s⁻¹ | kon [5]: 448000 M⁻¹ s⁻¹ | EC50 [4]: 0.357 µg/mL
B11: BGA-2042 (Fc fusion)
chain: B5 chain with G44E

KD ratio to BGA-026 chimeric [5]: 1.26 | Kd [5]: 0.612 nM | koff [5]: 0.000267 s⁻¹ | kon [5]: 436000 M⁻¹ s⁻¹
B15: BGA-2046 (Fc fusion)
chain: B5 chain with L45R
